The values that follow come from the supplement of paper PMC8728848.

This is one part of the list.

Holding throughout (assay): glycan array binding signal (z-score within array); higher = stronger binding
Common to all, as to conditions: glycan notation: IUPAC condensed, linker removed

The target in assay [1] is Gal(b1-4)GlcNAc(b1-3)Gal(b1-4)GlcNAc(b1-3)Gal(b1-4)GlcNAc(b1-2)Man(a1-3)[Gal(b1-4)GlcNAc(b1-3)Gal(b1-4)GlcNAc(b1-3)Gal(b1-4)GlcNAc(b1-2)Man(a1-6)]Man(b1-4)GlcNAc(b1-4)GlcNAc. An outline of the steps:
(§1)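 The binding signal is a Z-score computed within each array and averaged over linkers. Arrays of the same protein sequence at different concentrations or buffers were also averaged together. Data originate from 3228 arrays in the Consortium for Functional Glycomics database, kept only where the protein sequence was available.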

Assay [2] deals with Gal(b1-4)GlcNAc(b1-3)Gal(b1-4)GlcNAc(b1-3)Gal(b1-4)GlcNAc(b1-2)Man(a1-3)[Gal(b1-4)GlcNAc(b1-3)Gal(b1-4)GlcNAc(b1-3)Gal(b1-4)GlcNAc(b1-2)Man(a1-6)]Man(b1-4)GlcNAc(b1-4)[Fuc(a1-6)]GlcNAc. The method, boiled down: as §1
Assay [3] deals with Gal(b1-4)GlcNAc(b1-3)Gal(b1-4)GlcNAc(b1-3)Gal(b1-4)GlcNAc(b1-2)[Gal(b1-4)GlcNAc(b1-3)Gal(b1-4)GlcNAc(b1-3)Gal(b1-4)GlcNAc(b1-6)]Man(a1-6)[Gal(b1-4)GlcNAc(b1-3)Gal(b1-4)GlcNAc(b1-3)Gal(b1-4)GlcNAc(b1-2)Man(a1-3)]Man(b1-4)GlcNAc(b1-4)[Fuc(a1-6)]GlcNAc. The method, boiled down:
as §1

Assay [4] deals with Gal(b1-4)GlcNAc(b1-3)Gal(b1-4)GlcNAc(b1-3)Gal(b1-4)GlcNAc(b1-3)Gal(b1-4)GlcNAc(b1-2)Man(a1-3)[Gal(b1-4)GlcNAc(b1-3)Gal(b1-4)GlcNAc(b1-3)Gal(b1-4)GlcNAc(b1-3)Gal(b1-4)GlcNAc(b1-2)Man(a1-6)]Man(b1-4)GlcNAc(b1-4)GlcNAc. An outline of the steps: as §1
For assay [5], the target named is Gal(b1-4)GlcNAc(b1-3)Gal(b1-4)GlcNAc(b1-3)Gal(b1-4)GlcNAc(b1-3)Gal(b1-4)GlcNAc(b1-2)Man(a1-3)[Gal(b1-4)GlcNAc(b1-3)Gal(b1-4)GlcNAc(b1-3)Gal(b1-4)GlcNAc(b1-3)Gal(b1-4)GlcNAc(b1-2)Man(a1-6)]Man(b1-4)GlcNAc(b1-4)[Fuc(a1-6)]GlcNAc. An outline of the steps:
as §1

The target in assay [6] is Gal(b1-4)GlcNAc(b1-3)Gal(b1-4)GlcNAc(b1-3)Gal(b1-4)GlcNAc(b1-3)Gal(b1-4)GlcNAc(b1-2)[Gal(b1-4)GlcNAc(b1-3)Gal(b1-4)GlcNAc(b1-3)Gal(b1-4)GlcNAc(b1-3)Gal(b1-4)GlcNAc(b1-6)]Man(a1-6)[Gal(b1-4)GlcNAc(b1-3)Gal(b1-4)GlcNAc(b1-3)Gal(b1-4)GlcNAc(b1-3)Gal(b1-4)GlcNAc(b1-2)Man(a1-3)]Man(b1-4)GlcNAc(b1-4)[Fuc(a1-6)]GlcNAc. An outline of the steps:
as §1

Assay [7] concerns the target Gal(b1-4)GlcNAc(b1-3)Gal(b1-4)GlcNAc(b1-3)Gal(b1-4)GlcNAc(b1-3)Gal(b1-4)GlcNAc(b1-3)Gal(b1-4)GlcNAc(b1-2)Man(a1-3)[Gal(b1-4)GlcNAc(b1-3)Gal(b1-4)GlcNAc(b1-3)Gal(b1-4)GlcNAc(b1-3)Gal(b1-4)GlcNAc(b1-3)Gal(b1-4)GlcNAc(b1-2)Man(a1-6)]Man(b1-4)GlcNAc(b1-4)GlcNAc. An outline of the steps: as §1
Assay [8] has as its target Gal(b1-4)GlcNAc(b1-3)Gal(b1-4)GlcNAc(b1-3)Gal(b1-4)GlcNAc(b1-3)Gal(b1-4)GlcNAc(b1-3)Gal(b1-4)GlcNAc(b1-2)Man(a1-3)[Gal(b1-4)GlcNAc(b1-3)Gal(b1-4)GlcNAc(b1-3)Gal(b1-4)GlcNAc(b1-3)Gal(b1-4)GlcNAc(b1-3)Gal(b1-4)GlcNAc(b1-2)Man(a1-6)]Man(b1-4)GlcNAc(b1-4)[Fuc(a1-6)]GlcNAc. An outline of the steps:
as §1

Assay [9] addresses Gal(b1-4)GlcNAc(b1-3)Gal(b1-4)GlcNAc(b1-3)Gal(b1-4)GlcNAc(b1-3)Gal(b1-4)GlcNAc(b1-3)Gal(b1-4)GlcNAc(b1-2)[Gal(b1-4)GlcNAc(b1-3)Gal(b1-4)GlcNAc(b1-3)Gal(b1-4)GlcNAc(b1-3)Gal(b1-4)GlcNAc(b1-3)Gal(b1-4)GlcNAc(b1-6)]Man(a1-6)[Gal(b1-4)GlcNAc(b1-3)Gal(b1-4)GlcNAc(b1-3)Gal(b1-4)GlcNAc(b1-3)Gal(b1-4)GlcNAc(b1-3)Gal(b1-4)GlcNAc(b1-2)Man(a1-3)]Man(b1-4)GlcNAc(b1-4)[Fuc(a1-6)]GlcNAc. The method, boiled down:
as §1

Assay [10] deals with Gal(b1-4)GlcNAc(b1-3)Gal(b1-4)GlcNAc(b1-3)Gal(b1-4)GlcNAc(b1-3)Gal(b1-4)GlcNAc(b1-3)Gal(b1-4)GlcNAc(b1-3)Gal(b1-4)GlcNAc(b1-2)Man(a1-3)[Gal(b1-4)GlcNAc(b1-3)Gal(b1-4)GlcNAc(b1-3)Gal(b1-4)GlcNAc(b1-3)Gal(b1-4)GlcNAc(b1-3)Gal(b1-4)GlcNAc(b1-3)Gal(b1-4)GlcNAc(b1-2)Man(a1-6)]Man(b1-4)GlcNAc(b1-4)GlcNAc. The method, boiled down:
as §1

Assay [11] addresses Gal(b1-4)GlcNAc(b1-3)Gal(b1-4)GlcNAc(b1-3)GalNAc. The method, boiled down:
as §1

For assay [12], the target named is Gal(b1-4)GlcNAc(b1-3)Gal(b1-4)GlcNAc(b1-3)[Gal(b1-4)GlcNAc(b1-3)Gal(b1-4)GlcNAc(b1-6)]GalNAc. The method, boiled down:
as §1

Assay [13] addresses Gal(b1-4)GlcNAc(b1-3)Gal(b1-4)GlcNAc(b1-6)[Gal(b1-3)]GalNAc. An outline of the steps: as §1
The target in assay [14] is Gal(b1-4)GlcNAc(b1-3)Gal(b1-4)[Fuc(a1-3)GlcNAc(b1-6)]Gal(b1-4)Glc. An outline of the steps: as §1
The target in assay [15] is Gal(b1-4)GlcNAc(b1-3)Gal(b1-4)[Fuc(a1-3)]GlcNAc(b1-3)Gal(b1-4)[Fuc(a1-3)]GlcNAc. The method, boiled down: as §1
The target of assay [16] is Gal(b1-4)GlcNAc(b1-3)GalNAc. An outline of the steps:
as §1

Assay [17] has as its target Gal(b1-4)GlcNAc(b1-3)[Fuc(a1-3)GlcNAc(b1-6)]Gal(b1-4)Glc. The method, boiled down:
as §1

Assay [18] has as its target Gal(b1-4)GlcNAc(b1-3)[Gal(b1-4)GlcNAc(b1-6)]Gal(b1-4)GlcNAc. The method, boiled down:
as §1

The target of assay [19] is Gal(b1-4)GlcNAc(b1-3)[Gal(b1-4)GlcNAc(b1-6)]GalNAc. The method, boiled down:
as §1

For assay [20], the target named is Gal(b1-4)GlcNAc(b1-3)[GlcNAc(b1-6)]Gal(b1-4)GlcNAc. An outline of the steps:
as §1

The target of assay [21] is Gal(b1-4)GlcNAc(b1-6)Gal(b1-4)GlcNAc. An outline of the steps:
as §1

In assay [22] the target is Gal(b1-4)GlcNAc(b1-6)GalNAc. An outline of the steps: as §1
For assay [23], the target named is Gal(b1-4)GlcNAc(b1-6)[Gal(b1-3)]GalNAc. The method, boiled down: as §1

B1: Gal 7 (Homo sapiens) (protein)
chain: MSNVPHKSSLPEGIRPGTVLRIRGLVPPNASRFHVNLLCGEEGGSDAALHFNPRLDTSEVVFNSKEGGSWGREERGPGVPFGRGQPFEVLIIASDDGFKAVVGDAQYHHFRHRLPLARVRLVEVGGDVQLDSVRIF
B1: the “glycan array binding signal (z-score)” value in assay [1] was found to be 3.58; in assay [2], 4.99; in assay [3], 4.93; in assay [4] it was 4.71; in assay [5], 4.78; in assay [6], 5.2. Moreover, the “glycan array binding signal (z-score)” value in assay [7] is 4.95; in [8], 4.93; in assay [9], 5.14; in [10], 3.77; in assay [11], -0.127; in assay [12], 0.482. The “glycan array binding signal (z-score)” value is -0.233 in assay [13]; -0.338 in assay [14]; 0.16 in assay [15]; -0.323 in assay [16]; -0.258 in assay [17]; -0.337 in [18]. Further, the “glycan array binding signal (z-score)” value in assay [19] was 0.217; in assay [20] it was -0.294; in assay [21], -0.304; in [22], -0.153; in [23] it was -0.165.
